Assay results published in PubChem BioAssay AID1460 (National Center for Advancing Translational Sciences (NCATS), 2008).
Out of some 270,000 compounds screened, about 5,800 (2.1%) were called active. Inconclusive results, whose numbers are uncertain, are shown with a selection of clear calls. Calls follow the shape of the dose curve; as a rule, active = well fitted inhibition curve with a large enough effect; inconclusive = small, poorly fitted or top-dose-only effect; inactive = flat fitted curve, though single readings scatter. A potency beside an inconclusive call is a rough fit, not a confirmed value.

The compounds below were run against Microtubule-associated protein tau (Homo sapiens) (UniProt P10636) (assay: qHTS for Inhibitors of Tau Fibril Formation, Thioflavin T Binding). Details: recombinant tau K18 P301L (four-repeat tau fragment), heparin-induced fibrillization, ThT fluorescence; series mostly up to 57.4 µM.
Chain of UniProt P10636 (P10636 whole entry, looked up, the tested form may be a part): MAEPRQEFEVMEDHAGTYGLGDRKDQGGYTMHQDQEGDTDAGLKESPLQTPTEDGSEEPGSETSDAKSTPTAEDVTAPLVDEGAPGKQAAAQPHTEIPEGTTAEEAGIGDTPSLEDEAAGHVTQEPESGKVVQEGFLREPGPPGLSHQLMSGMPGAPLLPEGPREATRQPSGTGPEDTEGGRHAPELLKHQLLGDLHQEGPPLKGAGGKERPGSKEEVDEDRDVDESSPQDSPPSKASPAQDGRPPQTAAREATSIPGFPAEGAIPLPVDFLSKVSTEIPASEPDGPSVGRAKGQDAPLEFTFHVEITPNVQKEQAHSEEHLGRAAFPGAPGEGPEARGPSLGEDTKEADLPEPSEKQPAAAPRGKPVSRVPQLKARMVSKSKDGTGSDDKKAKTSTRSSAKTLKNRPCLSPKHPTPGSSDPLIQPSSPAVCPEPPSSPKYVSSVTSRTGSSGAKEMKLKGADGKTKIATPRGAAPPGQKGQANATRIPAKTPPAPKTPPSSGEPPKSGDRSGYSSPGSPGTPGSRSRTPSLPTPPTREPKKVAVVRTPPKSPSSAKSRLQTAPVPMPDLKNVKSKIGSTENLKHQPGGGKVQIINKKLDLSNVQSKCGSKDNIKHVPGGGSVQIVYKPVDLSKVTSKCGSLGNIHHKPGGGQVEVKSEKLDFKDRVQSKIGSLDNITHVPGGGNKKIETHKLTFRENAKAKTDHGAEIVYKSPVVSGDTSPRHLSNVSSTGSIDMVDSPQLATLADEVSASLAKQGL
In short: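 Heparin-induced (20 uM) aggregation of recombinant human K18 P301L tau, 15 uM unlabeled with 0.24 uM labeled, pH 7 acetate buffer, 6 hr at 37 C with compound. Fibrils quantified by 30 uM ThT fluorescence after 1 hr ambient incubation.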
Also: nearly all actives have a fitted effect of over 55% in size.
Potency is read from the fitted curve at half-maximal effect; tags tell the direction and shape of the fitted curve.

Row | SMILES | Potency
1 | CCn1c2ccccc2c2cc(NC(=O)COC(=O)c3ccccc3Br)ccc21 | inconclusive: 10 µM [inhibitor, partial curve]
2 | Oc1c(C(c2ccccc2)N2CCOCC2)sc2nc(-c3ccco3)nn12 (stereo unspecified) | inactive
3 | Cc1ccnc(NC(c2ccncc2)c2c(C)[nH]c3ccccc23)c1 (stereo unspecified) | inconclusive: 14.1 µM [inhibitor, partial curve]
4 | Cc1onc(-c2ccccc2)c1C(=O)NC(=S)Nc1sc2c(c1C#N)CCCC2 | active: 28.2 µM
5 | O=C(C1CCN(c2nnc(N3CCCC3=O)s2)CC1)N1CCN(Cc2ccc3c(c2)OCO3)CC1 | inconclusive: 31.6 µM [inhibitor, single point]
6 | COc1ccc(N/C(=C/[N+](=O)[O-])SC)cc1 | inconclusive: 17.8 µM [inhibitor, partial curve]
7 | Cc1cc(C)cc(NC(=O)CSc2ccc(-c3ccco3)nn2)c1 | inconclusive: 14.1 µM [inhibitor, partial curve]
8 | S=C(Nc1ccccc1)N1N=C(c2cccs2)CC1c1cccs1 (stereo unspecified) | inactive
9 | C/C(=N\N=C1\NC(=O)C(Cc2ccccc2)S1)c1ccccc1 (stereo unspecified) | inconclusive: 3.16 µM [inhibitor, partial curve, poor fit]
10 | COC(=O)/C=C\C(=O)Nc1cccc([N+](=O)[O-])c1 | inconclusive: 6.31 µM [inhibitor, full curve]
11 | C#CCOc1ccccc1CNc1ccccc1 | inconclusive: 39.8 µM [inhibitor, single point]
12 | CCC(=O)N1CCc2cc(S(=O)(=O)NCCC(=O)Nc3cc(C)cc(C)c3)ccc21 | inactive
13 | COc1ccc(N2CCN(C(c3nnnn3CCc3ccccc3)C(C)C)CC2)cc1 (stereo unspecified) | inconclusive: 14.1 µM [inhibitor, partial curve, poor fit]
14 | COc1ccc(/C=C/C2=CC3(C)CC2(C)C(c2ccc(OC)cc2)CC3=O)cc1 (stereo unspecified) | inconclusive: 7.94 µM [inhibitor, single point]
15 | CCc1cccc(NC(=O)Cn2c(=O)n(CCC(=O)NCc3ccccc3Cl)c(=O)c3sccc32)c1 | inconclusive: 12.6 µM [activator, partial curve]
16 | Cc1nn(C(C)C(=O)Nc2ccc3c(c2)OCO3)c(C)c1[N+](=O)[O-] (stereo unspecified) | inconclusive: 39.8 µM [inhibitor, single point]
17 | CC(=O)N(/N=C1\Sc2ccccc2C1=O)c1ccc(C)cc1C | inconclusive: 15.8 µM [inhibitor, partial curve]
18 | Cc1cc(Cl)ccc1OC(C)C(=O)Nc1ccc(S(=O)(=O)Nc2cnc3ccccc3n2)cc1 (stereo unspecified) | inconclusive: 31.6 µM [inhibitor, single point]
19 | O=C(Nc1ccc(C(=O)N2CCN(c3ccccc3F)CC2)cc1)c1nsc2ccccc12 | inactive
20 | c1ccc2c(N3CCNCC3)nc(-c3ccoc3)nc2c1 | inconclusive: 8.91 µM [inhibitor, full curve]
21 | COc1cc(/C=N/N=C2/NC(=O)C(CC(=O)O)S2)ccc1OCc1ccc(Cl)cc1 (stereo unspecified) | inactive
22 | CCSc1ccccc1C(=O)Nc1cccc(OC)c1 | inactive
23 | O=C(CCCO)NNc1c2ccccc2nc2ccccc12 | inconclusive: 10 µM [inhibitor, partial curve]

Row | SMILES | Potency
24 | CC(=O)c1ccc(NC(=O)c2noc3c2CCC3)cc1 | inconclusive: 15.8 µM [inhibitor, partial curve]
25 | CCOc1ccc(N2CC(=O)SC2=S)cc1 | inconclusive: 8.91 µM [inhibitor, partial curve]
26 | COCc1cc(CN2CCN(C)CC2)c(O)c2ncccc12 | inconclusive: 14.1 µM [inhibitor, partial curve]
27 | COc1ccc(-c2cn3cccnc3n2)cc1NC(=O)Nc1cc(C)ccc1C | inconclusive: 3.98 µM [inhibitor, full curve, poor fit]
28 | O=[N+]([O-])c1ccccc1Nc1c2ccccc2nc2ccccc12 | inactive
29 | O=[N+]([O-])c1ccc(/C=C2\CCC(C3=CCCC3)=C2N2CCOCC2)cc1 | active: 15.8 µM
30 | CCOc1ccccc1CN1CCc2nc(N3CCN(C)CC3)ncc2C1 | inactive
31 | Cc1ccc(NC(=O)CSc2nc(-c3cccs3)nc3cc(=O)[nH]n23)cc1C | inconclusive: 17.8 µM [inhibitor, partial curve]
32 | C#CCN1C(=O)S/C(=C/C=C/c2ccc(N(C)C)cc2)C1=O | active: 1.58 µM
33 | CCc1oc(C(=O)O)cc1COC | inactive
34 | Cc1noc(C)c1COC(=O)c1ccc(S(=O)(=O)NCc2ccco2)cc1 | inconclusive: 14.1 µM [inhibitor, partial curve]
35 | N#C/C(=C(/O)c1ccc([N+](=O)[O-])cc1)c1nnc2n1CCCCC2 | inactive
36 | COc1cccc([C@@H]2Oc3ccc(Br)cc3C[C@H]2OC(=O)Nc2ccc(OC(F)F)cc2)c1 | inactive
37 | CC[C@@H]1C(c2cccc(C)c2)=NN(c2ccc(Br)cc2)[C@H]1C(=O)N1CCOC1=O | inconclusive: 7.94 µM [inhibitor, full curve, poor fit]
38 | Cn1c(SCc2c(F)cccc2Cl)nc2c(c1=O)SCC2 | inconclusive: 25.1 µM [inhibitor, single point]
39 | O=C(/C=C/Sc1ccccc1)c1ccc(Cl)cc1 | inconclusive: 10 µM [inhibitor, partial curve]
40 | Cn1cccc1Cc1nnc(SCC(=O)Nc2ccccc2F)n1CCc1ccccc1 | inactive
41 | O=C(c1cccs1)N1CCN(c2ncc(Br)cn2)CC1 | inactive
42 | Cc1ccc(C2CN=NC23CCc2ccccc2C3=O)cc1 (stereo unspecified) | inconclusive: 31.6 µM [inhibitor, partial curve]
43 | CC1Cc2ccccc2N1C(=O)CSc1nnnn1C(C)C (stereo unspecified) | inactive
44 | COc1ccc2sc(SCCCS(=O)(=O)O)[n+](CCCS(=O)(=O)[O-])c2c1 | inactive
45 | CCOC(=O)CSc1nc2cc(C)ccc2cc1C#N | inconclusive: 1.41 µM [inhibitor, full curve]
46 | CC(C)Oc1ccc(CCC(=O)NNC(=S)Nc2ccccc2)cc1 | inconclusive: 17.8 µM [inhibitor, single point]
